In the supplement of paper PMC5895741:

B1: MS2 coat protein; the commonest letter at each place (parent)
chain: MASNFTQFVLVDNGGTGDVTVAPSNFANGVAEWISSNSRSQAYKVTCSVRQSSAQNRKYTIKVEVPKVATQTVGGVELPVAAWRSYLNMELTIPIFATNSDCELIVKAMQGLLKDGNPIPSAIAANSGIY

Variants of: B1
Test: apparent fitness score (VLP assembly selection enrichment vs plasmid library) (log10 ratio); higher = better expression / assembly into well-formed VLPs
Method: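 SyMAPS: NNK codon saturation mutagenesis of every codon of the MS2 bacteriophage coat protein (EMPIRIC cloning), expressed overnight in E. coli DH10B at 37 °C. Assembled VLPs were selected by ammonium sulfate precipitation plus FPLC size-exclusion chromatography, and the encapsidated RNA was sequenced. Apparent fitness score = log10 of the mean over 3 biological replicates of (percent abundance in the VLP library / percent abundance in the plasmid library). Variants absent after selection were set to 0.0001, i.e. -4.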
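Further: counts from Illumina MiSeq reads, cDNA of packaged RNA versus plasmid DNA taken before selection, each replicate independent from library construction onward, expression induced with 0.1% arabinose.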

Apparent fitness score (log10) of substitutions, site by site:
S38: F < -4 | K -0.811 | G -0.175 | D < -4 | C 0.234 | H < -4 | I < -4 | A 0.101 | M -1.02 | N -0.533 | E < -4 | L -0.161
A31: E < -4 | W 0.22 | S 0.109 | F -1.43 | I < -4 | P -0.329 | N < -4 | D 0.131 | M < -4 | R < -4 | L < -4 | C < -4 | T 0.22 | Q < -4 | K < -4 | G -1.25 | Y < -4 | H < -4 | V -0.0848
W33: K -1.54 | H < -4 | F -0.913 | S -0.709 | G -0.343 | Q < -4 | R -0.307 | E < -4 | Y -0.243 | I < -4 | D < -4 | P -0.584 | N < -4 | T < -4 | L -0.201 | V < -4 | M < -4 | A < -4 | C -0.0676
S36: R 0.691 | N 0.477 | W -0.586 | A 1.04 | E -0.0725 | T 0.288 | H 0.98 | I < -4 | V -1.34 | F 0.659 | D 0.154 | C 0.809 | Q 0.692 | Y 0.722 | L -0.464 | P 0.337 | K 0.336 | G 0.44 | M 0.546
V30: R -1.37 | W < -4 | M < -4 | D < -4 | Y < -4 | F < -4 | C < -4 | L < -4 | S < -4 | T -0.542 | G < -4 | I -0.263 | H < -4 | K -1.67 | P -0.885 | Q < -4 | E -0.119 | A < -4
E32: C -0.982 | N < -4 | W -0.579 | V -1.09 | A < -4 | T -1.28 | G -0.648 | M < -4 | R < -4 | Q < -4 | F -0.942 | H < -4 | S -1.57 | D -0.569 | K < -4 | P < -4 | Y < -4 | L -1.45 | I < -4
S35: K -0.0774 | T < -4 | I < -4 | E < -4 | R < -4 | M < -4 | F < -4 | L -1.31 | C -0.845 | G -1.25 | A -0.545 | Q < -4 | Y < -4 | P < -4 | W < -4 | V < -4
N37: A 1.06 | R -0.882 | M 0.0688 | W < -4 | G 0.57 | T 0.652 | Y < -4 | V -0.846 | S 0.743 | E 0.0863 | F -1.05 | L -1.28 | H -0.0671 | C -1.2 | I < -4 | P -0.39 | Q 0.0471 | K -0.223 | D < -4
I34: G -0.891 | P < -4 | V 0.36 | K -0.574 | A 0.725 | H 0.553 | S 0.631 | Q -0.368 | N -0.825 | Y -0.122 | T 0.251 | L -0.416 | W < -4 | R -1.21 | M 0.0291 | F 0.384 | E -1.19 | C 0.786 | D < -4
G29: V 0.232 | P < -4 | W 0.397 | T < -4 | R 0.194 | Y < -4 | S -1.09
